The values below come from the RNAGym collection of RNA variant scans (doi:10.7554/elife.90254).

Read counts are not given, so values of variants with three or more changes are uncertain.

B1: LINE1-mini (parent)
chain: GGCAGAGCUCAACACAGCGUGGCAAAGUGGCUGUGGCUAGACUGCC

The variants in the data set derive from B1. Put plainly: self-cleavage, relative activity (ratio to wild type); higher = more cleavage; in vitro, sequencing; the parent is a self-cleaving ribozyme.
Consider GGGAGAGCUCAACACAGCGUGGCAAAGUGGCUGUUGAUAGACUGCC [C3G G35U C37A], for which the self-cleavage worked out at 0.14.

GGGAGAGCUCAACACAGCGUGGCAAAGUGGUAGUGGCUAGACUGCC [C3G C31U U32A]: the self-cleavage is 0.66.

As to GGGAGAGCUCAACACAGCGCGGCAAAGUGGCUGUGGCGAGACUGCC [C3G U20C U38G], the self-cleavage amounted to 0.03.

Take GGGACAGCUCAAUACAGUGUGGCAAAGUGGCUGUGGCUAAACUGCC [C3G G5C C13U C18U G40A]: the self-cleavage was found to be 0.13.

For GGGAAAGCUCAAUACAGCGUGGCAAAGCGGCUGUGGCUAGACUGCC [C3G G5A C13U U28C], the self-cleavage was determined as 0.7.

For the variant GGGAUAGCUCAACACAGCGUGGCAAAGUGGCUGUGUCUAGACUGCC [C3G G5U G36U], the self-cleavage was found to be 0.22.

As for GGGAGAGCUCAACACACCGAGGCAAAGUGGCUGUGGCUAGACUGCC [C3G G17C U20A], the self-cleavage came to 0.02.

Take GGGAGAGCUCAACACAGCGUGGAAAAGUGGCUGUGGCUGGACUGCC [C3G C23A A39G]: the self-cleavage was determined as 0.16.

Consider GGGAGAGCUCAACACAGCUUGCCUAAGUGGCUGUGGCUAGACUGCC [C3G G19U G22C A24U], for which the self-cleavage was determined as 0.1.

As for GGGAGAGCUCAACACAGCGUGGUAAAGUGGAUGUGGCUAGACUGCC [C3G C23U C31A], the self-cleavage is 0.02.

As for GGGAGAGCUCAACACAGCGUGGCAAAGUCGCUGUGGCUAUACUGCC [C3G G29C G40U], the self-cleavage is 0.05.

As for GGGAGAGCUCAACACAGCGUGGGAAAGUGGCUGUGGCUAGACUGCU [C3G C23G C46U], the self-cleavage came to 0.2.

On to GGGAGAGCACAACACAGCGCGGCAAAGUGGCUCUGGCUAGACUGCC [C3G U9A U20C G33C], for which the self-cleavage worked out at 0.41.

Turning to GGGAGAGCUCAACACAGCGAGGCAAAGAGGCUGUGGCUAGCCUGCC [C3G U20A U28A A41C], the self-cleavage is 0.09.

GGGAGAGCUCAACACAGCGCGCAAAAGUCGCUGUGCCUAGAAUGCC [C3G U20C G22C C23A G29C G36C C42A]: the self-cleavage worked out at 0.02.

For GGGAGAGCUCAACACAGGGUGGCAAAGUGGCUGUAGCUAGACCGCC [C3G C18G G35A U43C], the self-cleavage was 0.

As for GGGAGAGCUCAACACAGCGUAGCAAAUCGGCUUUGGCUAGACUGGG [C3G G21A G27U U28C G33U C45G C46G], the self-cleavage was 0.02.

Consider GGGAGAGCUCAACACAGCGUGGCAAAGUGGCUGUGGCUAGACUCAC [C3G G44C C45A], for which the self-cleavage amounted to 0.23.

Take GGGAGAGCUCAACACAGUGUGGCAAAGUGGCUGUGGCUACACUGGC [C3G C18U G40C C45G]: the self-cleavage turned out to be 0.04.

As to GGGAGAGCUCAACACAGCAUGGCUAAGUGGCUGUGGCUAGACUGCC [C3G G19A A24U], the self-cleavage was found to be 0.42.

As for GGGAGAAGUCAAUACCGCGUGGCAAAGUGGCUGUGGCUAGAGUGCC [C3G G7A C8G C13U A16C C42G], the self-cleavage was 0.16.

As to GGGAGAGCUCAACACACCUUGGCAAAGUGGCGAUGACUUGACUGAC [C3G G17C G19U U32G G33A G36A A39U C45A], the self-cleavage stood at 0.04.

Turning to GGGAGAGCCCAACACAGCGUGUCAAAGUGCCUGUGGCUAGACUACC [C3G U9C G22U G30C G44A], the self-cleavage came to 0.1.

With GGGAGAGCUCAACAAAGCGUGGCAAAGUGGCUGUGGCUAGACGCCC [C3G C15A U43G G44C], the self-cleavage was found to be 0.06.

Turning to GGGAGAGCUCAACACAGCCUGACAAAGUGGCUGUGGCUUGAGUCCC [C3G G19C G22A A39U C42G G44C], the self-cleavage was determined as 0.

On to GGGAGAGCACGACCCAGAGUGGCAAAGUGGAUGUGGGUAGAUUGCC [C3G U9A A11G A14C C18A C31A C37G C42U], for which the self-cleavage worked out at 0.

As to GGGAGAGCGCAACACAGCGCCGCAACGUGGCUGUGGCUAGACUGCC [C3G U9G U20C G21C A26C], the self-cleavage amounted to 0.04.

In the case of GGGAGAGCUCAACACAGCGUGGCAAAGUGGAUGCGGCUAGAGUGCA [C3G C31A U34C C42G C46A], the self-cleavage stood at 0.13.

As for GGGAGAGCUCAACAUAGCGUGUCAAUGUGGCUGUGGCUAGACUGCC [C3G C15U G22U A26U], the self-cleavage was found to be 0.14.

As for GGGAGAGCUCAACACAGCGUAGCAAAGUGGAUGUGGCUAGCCUGCC [C3G G21A C31A A41C], the self-cleavage is 0.04.

Regarding GGGAGAGCUCAACACAGCGUGGUAAAGUGGCUGUGGCUAGUCUGCC [C3G C23U A41U], the self-cleavage was found to be 0.78.

Take GGGAUAGCUAAACACAGCGUGGCAAAGUGACUGUGCCUAGACUGCC [C3G G5U C10A G30A G36C]: the self-cleavage stood at 0.02.

For the variant GGGAGAGCACAAAACAGCGUGGCAAAGUGGCUGUGGCUAGACUGCC [C3G U9A C13A], the self-cleavage is 0.43.

Consider GGGAGAGCUCAACACAGCGUGGUAAAGUGGCCGUGGCUAGACUGUC [C3G C23U U32C C45U], for which the self-cleavage amounted to 0.09.

On to GGGAGAGCUCAACACAGCGUGGCAAAAUGGCUGUUGCUAGACUGCC [C3G G27A G35U], for which the self-cleavage came to 0.11.

As to GGGAGAGCUCAACACAGCGAGGCAAAGUGGCUAUGGCUAGACUGCC [C3G U20A G33A], the self-cleavage is 0.05.

Consider GGGAGAGCUCAACACAGCGGGGCAGAGUGGCUGUGGCUAGACUGCC [C3G U20G A25G], for which the self-cleavage came out at 0.13.

Turning to GGGAGAGCUCAACACAGCGUGCCAAAGUGGCUGAGGAUAGACUGCC [C3G G22C U34A C37A], the self-cleavage amounted to 0.1.

As to GGGAGAGCGCAACACAGCGUUGCAAAGUGGCUGUGGCUAGACUGCC [C3G U9G G21U], the self-cleavage amounted to 0.1.

On to GGGAGAGCGCAACACAGCGUGGCAAAGUGGUUGUGGCUUGACUGAC [C3G U9G C31U A39U C45A], for which the self-cleavage was found to be 0.02.

Regarding GGGAUAGCUUAACAGAGCGUGGCAAAGUGGCUGUGGCUAGACUGCC [C3G G5U C10U C15G], the self-cleavage worked out at 0.06.

Turning to GGGAGAGCUCAACACAGCCUGGCAAUGUUGCUGUGGCUAGACUGGG [C3G G19C A26U G29U C45G C46G], the self-cleavage turned out to be 0.01.

As to GGGAGAGCUCAACACAUAGUGGCAAAGUGGCUGUGGCUAGCCUGCC [C3G G17U C18A A41C], the self-cleavage turned out to be 0.05.

Take GGGACAGCUCAACACAUCGUGGCAAAGUGGCUGUGGCUAGACUGCC [C3G G5C G17U]: the self-cleavage was 0.1.

For GGGAGAGCUCAACACACCGUGGAAAAGUGCCUGUUGCUAAACUGCC [C3G G17C C23A G30C G35U G40A], the self-cleavage came out at 0.02.

GGGAGAGCUCAACACACCGUUGCAAAGUGGCUGUGGCUAGACUGCC [C3G G17C G21U]: the self-cleavage was determined as 0.6.

Consider GGGAGAGCUCAACACAUCGUGGAAAAGUGGCUGUGGUUAAACUGCC [C3G G17U C23A C37U G40A], for which the self-cleavage stood at 0.2.

As for GGGAGAGCUCAACACAGCGUUGCGAAGUGGCUGUGGUUAAACUGCC [C3G G21U A24G C37U G40A], the self-cleavage is 0.24.

Turning to GGGAUAGGUCAACACAGCGUGGCAAAGUCGCUAUGGCUAGCCUGCC [C3G G5U C8G G29C G33A A41C], the self-cleavage worked out at 0.03.

GGGAGAGCUCAACACAGCGCGGCAAAGUGGCUGUGCCUAGACUGCC [C3G U20C G36C]: the self-cleavage stood at 0.15.

In the case of GGGAGAGCUCAACAAAGCGUGGAAAAGUGGCUGUGGCUAGACUGCC [C3G C15A C23A], the self-cleavage came to 0.12.

On to GGGAGAGCUCAACACAGCGUGGCAAAGUGACUGUGGCUAGACUGCA [C3G G30A C46A], for which the self-cleavage stood at 0.11.

GGGAGAGCUCAACACAGCAUGGCAAAGUGGCUGUGGCUAGACUCCC [C3G G19A G44C]: the self-cleavage came out at 2.53.

GGGAGAGCUCAACACAGCUUCGCAAAGUGGCUGUGGCUAGUCUGCC [C3G G19U G21C A41U]: the self-cleavage was 0.09.

With GGGAUAGCUCAAUACAGCGUGGCAAAGUGGCCGUGGCUAGACUGCC [C3G G5U C13U U32C], the self-cleavage is 0.33.

With GGGAGAGCUCAACACAGCGUGGCAAAGUAGCUGUGGGUGGACCGCG [C3G G29A C37G A39G U43C C46G], the self-cleavage was 0.1.
